The list shows a part of the results. At the low end of the ranking the order means little.
These sequences were tested against T1, GST-Rok-C97-191 (UniProt O34857) (assay: protein binding microarray). Details: Rok is a gene silencer of Bacillus subtilis; high values mean tight binding; most listed sequences are background and not binding sites; double strand, one strand shown.
T1 sequence: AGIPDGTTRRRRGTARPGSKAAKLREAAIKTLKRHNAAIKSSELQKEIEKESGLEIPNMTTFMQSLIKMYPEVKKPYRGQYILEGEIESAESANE
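Also: rank score from −0.5 (least bound) to 0.5 (best bound).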

Sequence	binding signal
AACTCAAA	0.05 E-score
TCCTGACA	-0.0157 E-score
AGTAAGAT	0.169 E-score
ATGGTACA	0.199 E-score
CGAGTGGC	-0.178 E-score
AGGTGCGG	-0.307 E-score
CTTTTAAC	0.0914 E-score
AGTCGTAA	0.125 E-score
AAAAATGT	0.129 E-score
ATCAACGC	-0.0258 E-score
GATAAAGC	-0.0584 E-score
TCTTTACA	0.0871 E-score
CAGTCGGA	-0.205 E-score
GATAGAGA	0.104 E-score
ATAGCAAG	0.0644 E-score
CTATGCGA	0.118 E-score
TATGAGAA	0.0666 E-score
CCTCTGTC	-0.166 E-score
AGTACGAC	0.074 E-score
CTCGAATC	-0.145 E-score
ACCACCAA	-0.0739 E-score
ATATTCGC	0.0955 E-score
ACTTCCAT	-0.0388 E-score
GCCACCGC	-0.0587 E-score
CCTTTCAA	-0.171 E-score

Sequence	binding signal
TTCAGAAA	-0.153 E-score
GTACAGTA	0.283 E-score
AGCTCCCC	-0.277 E-score
ACGGAATC	0.187 E-score
AGATGGAC	-0.183 E-score
GCCAGCGA	-0.311 E-score
CCCCGGCA	-0.136 E-score
CGTCCGTA	-0.0633 E-score
CGGGGACA	-0.205 E-score
GGCGACCC	-0.372 E-score
CTTAACTC	0.118 E-score
CACGTACA	0.177 E-score
ATCGGAAA	0.048 E-score
ACGCGCTC	-0.0411 E-score
CATACACC	0.126 E-score
AAGGTAAG	-0.103 E-score
GATGGGCA	-0.171 E-score
ACAAGTGT	0.146 E-score
ACCGGTCT	0.064 E-score
AATCACTC	-0.00406 E-score
ACAAGTGG	0.119 E-score
CAATTTTA	0.234 E-score
ATTTGTAG	0.311 E-score
ATCGAGAG	0.0367 E-score
ACGGCGGG	-0.134 E-score

Sequence	binding signal
CACCAGTG	-0.000289 E-score
GCTTTGGA	-0.076 E-score
ACGCCAGC	-0.105 E-score
AAAGTGCA	-0.0234 E-score
AGGCTGCA	-0.131 E-score
ACATTTGC	0.205 E-score
CAAACAAA	-0.186 E-score
CATGTGAC	0.0514 E-score
CCTAAGTA	0.0428 E-score
AGAATCGA	-0.163 E-score
ATGACGGG	-0.176 E-score
GGCGTCAC	-0.266 E-score
CACCCTAA	-0.0478 E-score
CAACGATG	-0.138 E-score
CCGTCATA	-0.0619 E-score
CTCAGCTC	-0.34 E-score
CGAATCCG	-0.0422 E-score
CTCATTTC	-0.0889 E-score
GGACACTA	0.00822 E-score
CATCAAGG	-0.316 E-score
GTGGATCA	-0.0318 E-score
TCTCGTAA	-0.0374 E-score
CCCCCTAA	-0.209 E-score
GGCGCGTA	0.0908 E-score
ACTCAGAA	-0.0517 E-score

Sequence	binding signal
ATGAACCC	-0.206 E-score
CAGCAGCG	-0.131 E-score
GAGCTTTA	9.88e-05 E-score
AATGGGTA	0.181 E-score
AGGATGAA	-0.145 E-score
AGTTGACC	-0.0633 E-score
CATAATAG	0.136 E-score
CAAGCACC	-0.14 E-score
ATGCGCCG	-0.139 E-score
AAAGCGAC	-0.0243 E-score
ATCCTGTG	0.0425 E-score
ATGTTTTA	0.11 E-score
AAAATATT	0.327 E-score
AGCCATAA	0.127 E-score
CAAACATA	0.192 E-score
AGCTCCCG	-0.258 E-score
ATTCTTCC	0.0679 E-score
AGTCGTCG	-0.0572 E-score
GCTTGATA	0.104 E-score
CTTGAAAG	-0.00319 E-score
AATTGAAC	-0.0536 E-score
GGACTAGA	0.118 E-score
CCATGACC	-0.229 E-score
CTAGACTC	-0.114 E-score
CGTCTCCC	-0.206 E-score

Sequence	binding signal
TCTTATAA	0.179 E-score
CTTAGGTA	0.121 E-score
ATACAATG	0.259 E-score
AATGCGGT	0.0639 E-score
AATAACGG	0.0506 E-score
CATGGTGC	-0.16 E-score
TCGTTTCA	-0.0845 E-score
ACCAAAAC	-0.044 E-score
CTAACACC	0.017 E-score
CACCTTCC	-0.284 E-score
AAGCTAAG	-0.182 E-score
CGAGGCAA	0.0333 E-score
CAGCGCGA	0.167 E-score
GGTGTGAA	-0.134 E-score
AATCGTAG	0.166 E-score
ACCCTACG	-0.0398 E-score
ACTTTTTA	0.167 E-score
AGGTCTGC	-0.0668 E-score
GCTTCATA	-0.054 E-score
CTGACCCA	-0.0521 E-score
ATCTGAGG	-0.13 E-score
GCATAGAA	0.105 E-score
GTGTCGGA	-0.109 E-score
ACTCTGCC	-0.189 E-score
GAAATCTA	0.383 E-score

Sequence	binding signal
GACTGAGA	-0.13 E-score
AGCATTTA	0.102 E-score
ATAACGAA	0.263 E-score
CAGCAAAA	-0.224 E-score
GAACTGTC	-0.0656 E-score
AGATCTTG	0.183 E-score
GAGGACGC	-0.276 E-score
ACTGCTCT	-0.185 E-score
CGTGGGCA	-0.271 E-score
ACCTGTCT	-0.0209 E-score
AATGTTAT	0.181 E-score
ATGTGAAG	0.221 E-score
AACCTCCA	-0.174 E-score
GTGTGTCA	-0.00182 E-score
CCAGGACA	-0.19 E-score
AACGCGCC	-0.193 E-score
CGCAGGTA	0.0863 E-score
AGAGGAAC	-0.0699 E-score
ACCTAGCA	0.03 E-score
CCCGGCTC	-0.226 E-score
ACGAAAGT	0.208 E-score
ACTGGCCG	-0.0305 E-score
AGCGGGCC	-0.341 E-score
AGTCTTCG	-0.016 E-score
GCAACTGC	-0.302 E-score

Sequence	binding signal
ATGTCTCC	-0.0346 E-score
CTCGCTGA	-0.146 E-score
GACTAGGC	-0.149 E-score
AAGAGCGG	-0.271 E-score
CGAAGCCA	-0.0573 E-score
CAGATGCC	-0.277 E-score
ATTACCTC	0.136 E-score
CAAAGGTC	-0.219 E-score
ACCCAATC	-0.121 E-score
AACCATTA	0.192 E-score
GCCATTAC	0.0845 E-score
GCGAACGC	-0.274 E-score
GCAGCCGC	-0.228 E-score
ACGAACGA	-0.222 E-score
CCTTTTGA	-0.0836 E-score
CGAATACA	0.242 E-score
CCACACGC	-0.0316 E-score
ACCTTATA	0.0173 E-score
AAAGCAGT	-0.16 E-score
CGGCCGAG	-0.169 E-score
TAGTCGCA	0.00372 E-score
GTTCCAGA	-0.0546 E-score
AGTATGCA	-0.0313 E-score
CACACCTG	-0.125 E-score
GCATACTA	0.241 E-score

Sequence	binding signal
CCCGCCGA	-0.0717 E-score
CCACCACC	-0.0918 E-score
TATAACAA	0.0846 E-score
CGCCACCG	-0.0411 E-score
CGATAGGC	0.0441 E-score
ATTTAGTG	0.0465 E-score
CCTGTGAG	-0.174 E-score
AATTGAGG	0.00998 E-score
ACAATCTA	0.281 E-score
CTCGAGGA	-0.0254 E-score
AGAACTGA	0.202 E-score
ATAAAGAT	0.163 E-score
AAATCAGC	0.000954 E-score
ACCCAAGG	-0.304 E-score
ACAGAGGC	-0.178 E-score
TAACAATA	0.292 E-score
AGGTCGCG	-0.12 E-score
CGTCGTAA	0.0645 E-score
AATACGGG	0.0951 E-score
ACTGGCCA	0.0167 E-score
CGCGTGGA	-0.235 E-score
GGCGACCA	-0.149 E-score
ATGTTGTC	-0.0124 E-score
AGATACAG	-0.00756 E-score
ACAGACCC	-0.142 E-score

Sequence	binding signal
AAATATCT	0.302 E-score
ATAAGAGG	0.0772 E-score
GGGGCCAA	0.0462 E-score
ATAAGCGC	0.113 E-score
CTGTAACA	-0.00852 E-score
CGCCGGCG	-0.423 E-score
ATCCATAG	-0.00373 E-score
ACCTTACC	-0.0191 E-score
CGGCACCG	-0.268 E-score
AAGCTGGG	-0.148 E-score
AGACCTAA	0.0335 E-score
ACCTCTAT	-0.0671 E-score
ATTGCATA	0.108 E-score
CACGATGA	-0.103 E-score
GAGGAGTA	-0.0605 E-score
ACCTTGGC	-0.158 E-score
TTACCAAA	0.243 E-score
CTTATGAC	0.214 E-score
AAGTCCTG	-0.0707 E-score

Source: article PMC6212790
